Measurements as given in PubChem BioAssay AID493208 (National Center for Advancing Translational Sciences (NCATS), 2011).
Hit rate of the full screen: of about 44,000 compounds, about 340 (0.77%) were called active. Another 5% or so got no clear call; they are omitted. Calls come from the whole dose curve; as a rule, active = well fitted inhibition curve with a large enough effect; inconclusive = small, poorly fitted or top-dose-only effect; inactive = flat fitted curve, though single readings scatter. The list shows a part of the results.

Test: Acumen qHTS Assay for Inhibitors of the mTORC1 Signaling Pathway in MEF (Tsc2-/-, p53-/-) Cells: Sytravon; note: nearly all actives have a fitted effect of over 50% in size
Details: phospho-rpS6 immunofluorescence/PI, 24 h; series mostly up to 38.3 µM; activity change, negative = inhibition: at the top concentration
Text: NIH Molecular Libraries Probe Production Centers Network [MLPCN] NIH Chemical Genomics Center [NCGC] MLPCN Grant: NS059428-01 Assay Submitter (PI): Blenis, John; Hoffman, Greg; Harvard University NCGC Assay Overview: The mammalian target of rapamycin (mTOR) is an intracellular serine/threonine kinase Aberrant regulation of mTOR signaling plays a causative role in a number of human diseases, including cancer, benign tumors such as lymphangioleiomyomatosis (LAM) and Tuberous Sclerosis Complex (TSC), and metabolic diseases such as diabetes and obesity. This project aims to identify inhibitors of ribosomal protein S6 (rpS6) phosphorylation. The phosphorylation of rpS6 is a key event downstream of mTOR activation. The assay uses a phospho-specific antibody of phospho-rpS6 to detect inhibitors of mTOR activation. Mutations in the Tsc1 and Tsc2 genes are the underlying genetic lesions responsible for TSC, causing constitutive activation of the mTORC1 pathway and leading to profound effects on cell metabolism. Aberrant metabolism in cancer has recently received significant attention as a target to develop therapeutic agents in the treatment of cancer.1 As Tsc2-/- cells have lost the ability to respond to energy and growth factor deprivation, these cells are unable to properly down regulate cellular biosynthetic processes in response to metabolic stress, and are thus extremely sensitive to glucose deprivation-induced death.2 A central goal of this project is to explore the unique cell survival and metabolic properties of cells with Tsc1 or Tsc2 by screening for compounds that selectively target the Tsc2-/- MEFs by screening both Tsc2-/- and WT MEF cell lines. We hope to better understand these aspects of TSC physiology in order to exploit them for therapeutic benefit.
NCGC Acumen Assay Protocol Summary: For quantitative high throughput analysis of mTORC1 signaling, we developed a cell-based assay for immuno-fluorescence based detection of rpS6 phosphorylation on the Acumen Explorer that will be used a platform for the primary small molecule screen. Mouse embryonic fibroblasts (MEFs) are cultured in 1536-well plates using DMEM + 10% FBS. Twenty-four hrs after plating, test compounds (solubilized in DMSO) are delivered and incubated with the cells for 24 hrs at 37 degree Celsius. Following the incubation, media with compound is aspirated and the cells are fixed in 4% paraformaldehyde (PFA) containing PBS + 0.2% TX-100. Next, PFA is aspirated, cells are washed two times with PBS plus 0.2% TX-100 and the cells are blocked for 1 hr at room temperature (blocking buffer: LiCOR Blocking Buffer plus 0.2% TX-100). […] Cells are washed two times with PBS plus 0.2% TX-100, and stained with 10 uM propidium iodide (PI) for 20-25 minutes for cell number measurement (1:500 dilution of Hoescht staining is also added for IN Cell imaging). The plates are scanned on the Acumen Explorer laser scanning instrument (TTP Labtech) using the 488nm laser for simultaneous excitation of the Alexa-488 and PI. […] The normalized phospho-S6 staining is calculated as the ratio of the integrated Alexa 488 intensity divided by the integrated PI intensity for the single concentration rapamycin control (7.5 nM) and DMSO columns. […] Inhibition of the pathway is defined based on the normalized phospho-S6 intensity in rapamycin treated cells. Active cells are defined as those with a normalized phospho-S6 staining above this threshold, and each treatment is reported as the % positive cells in the well, where thresholds are defined by selecting wells with the highest and lowest signal and differentiating between the % non-active and % active populations. In addition to the pathway specific phospho-S6 endpoint, the number of PI stained cells from the Acumen is recorded as a measure of cell viability. The primary screen was performed with a MEF cell line in a defined genetic background, Tsc2-/-, p53-/- cell line stably transfected with an empty vector control (Tsc2-/- MEF).

Activity change, negative = inhibition, inactive:
O=C(NC1CC(=O)N(c2ccccc2)C1)c1ccco1 (stereo unspecified) 0.0183%
Cc1ccc(C(=O)N2CCc3cc(CNC(=O)CCc4ccccc4)ccc32)cc1 -6.64%
COc1cccc(C(=O)NCCc2csc(-c3cccc(F)c3)n2)c1OC 0%
O=C(Nc1ccc(F)cc1)Nc1ccc2snnc2c1 -6.07%
CCc1cccc(NC(=O)CN(c2ccc(C)cc2)S(=O)(=O)c2cccs2)c1 -5.54%
CCC1CCCCN1CCCNC(=O)c1[nH]c2ccccc2c1Sc1ccc(Cl)cc1 (stereo unspecified) -14.9%
CCOc1ccc(C(c2c(O)cc(C)n(CCOC)c2=O)N2CCN(c3ccccc3)CC2)cc1 (stereo unspecified) 3.46%
Cc1c2cnn(CC(=O)N3CCCCC3)c(=O)c2c(C)n1Cc1ccc(F)cc1 -0.576%
COc1cccc(CNC(=O)C(CC(C)C)NS(=O)(=O)c2ccc3c(c2)oc(=O)n3C)c1 (stereo unspecified) 2.21%
Cc1ccc(Cl)cc1NS(=O)(=O)c1ccc2oc(=O)c3ncn(C)c3c2c1 3.04%
Cc1ccc2c(c1)C(=O)OC(C(=O)Nc1ncc(Cc3ccc(C(C)C)cc3)s1)C2 (stereo unspecified) 6.2%
COc1ccc(-c2noc(N3CCC(C(=O)Nc4ccc(F)cc4Cl)CC3)n2)cc1 1.1%
CCN(C(=O)CCS(=O)(=O)c1cc2[nH]c(=O)c(=O)[nH]c2cc1C)c1ccccc1 -2.08%
Cc1ccc2sc(N3CCN(C(=O)CCS(=O)(=O)c4ccc(Cl)cc4)CC3)nc2c1C 4.45%
O=C(NCCc1ccc(F)cc1)C(=O)NCC(c1cccs1)S(=O)(=O)c1ccc(F)cc1 (stereo unspecified) -17.2%
Cc1ccc(-c2cn3nc(N4CCCC(C(=O)Nc5ccc(F)cc5)C4)sc3n2)cc1 (stereo unspecified) 0.0361%
Cc1ccc(N(CC(=O)N2CCN(c3ccc(Cl)cc3)CC2)S(=O)(=O)c2c(C)nn(C)c2C)cc1 -2.42%
CCC(Sc1nc2ncccc2[nH]1)C(=O)Nc1cccc(OC)c1 (stereo unspecified) -5.3%
CCCN(CCC)C(=O)Cn1c(=O)n(-c2cccc(OC)c2)c(=O)c2c(C)c(C(=O)N(C)C)sc21 0.262%
Cc1ccc(NC(=O)C(Cc2ccccc2)n2cccc2)cc1 (stereo unspecified) -18.3%
COc1ccccc1CNC(=O)C1CCCN(C(=O)c2cnn(-c3ccc(F)cc3)c2-n2cccc2)C1 (stereo unspecified) -1.19%
COc1ccccc1OCCCSc1nc(-c2ccc(C(C)(C)C)cc2)nc2cc(=O)[nH]n12 -7.95%
COCCCn1c(=O)c2sccc2n2c(CCCC(=O)Nc3cc(C)cc(C)c3)nnc12 -11.2%
COc1ccc(CNC(=O)Cn2ncc3c4ccccc4n(Cc4cccc(Cl)c4)c3c2=O)cc1 -0.565%
CN1CCc2c(sc3c2C(=O)NC(c2ccc(OC(=O)c4ccccc4)cc2)N3)C1 (stereo unspecified) 1.1%
COc1ccc(OC)c(NCc2cccn2-c2nnc(N3CCCCC3)s2)c1 -0.758%
Cc1ccc(C)c(S(=O)(=O)c2cn(C)c3cc(N4CCCCC4C)c(F)cc3c2=O)c1 (stereo unspecified) -20.9%
COc1ccc(C)cc1NC(=O)c1ccc2c(=O)n3c(nc2c1)CCCCC3 -0.717%
COc1ccc(C(=O)NCCn2cc(SCC(=O)Nc3ccc(C)cc3)c3ccccc32)cc1 -15.2%
Cc1ccc(CNC(=O)NCc2noc3ccc(C)cc23)cc1 2.28%
Cc1cccc(-c2nc3c4ccccc4nc(N4CCN(c5ccccc5F)CC4)n3n2)c1 -1.5%
Cn1c(=O)c2c(-c3ccc(Cl)cc3)n(Cc3ccc(Cl)cc3)cc2n(C)c1=O -3.12%
COC(=O)c1cc2sc(Cl)cc2n1Cc1c(C)cc(C)cc1C -11.2%
CCn1c2ccccc2c2cc(NC(=O)COc3ccc(C)cc3C)ccc21 -2.08%
CCCCNC(=O)C1CCN(S(=O)(=O)CCC)CC1 1.43%
COc1ccc(OC)c(CNC(=O)c2ccc(C)c(NC(=O)c3nsc4ccccc34)c2)c1 -0.945%
Cc1ccc(Cn2c(CNS(=O)(=O)c3cccc([N+](=O)[O-])c3)nc3cccnc32)cc1 0.437%
COc1ccc(-c2cc(C)no2)cc1S(=O)(=O)Nc1c(C)cc(C)cc1C -18.2%
CCOc1ccc(OCC)c(NS(=O)(=O)c2cc(-c3cnc(C)o3)ccc2OC)c1 0%
Cc1nc2nncn2c(Nc2ccccc2)c1C -4.26%
COc1ccc(OC)c(NC(=O)c2c(N3CCCC3=O)c3cc(OC)ccc3n2C)c1 -2.85%
CCOC(=O)c1c(-c2ccccc2)csc1NC(=O)c1cc(=O)c2ccc(C)cc2o1 -0.431%
CCc1nn2c(=O)cc(COC(=O)c3cccc(NC(=O)c4cccs4)c3)nc2s1 0%
Cc1ccccc1-n1nc(CO)c(C(=O)NCc2cccnc2)n1 4.63%
CCc1cccc(C)c1NC(=O)Cn1cnc2c1c(=O)n(C)c(=O)n2C -4.58%
COCCNC(=O)Nc1cc(C(=O)NCc2ccc(C(C)C)cc2)ccc1N1CCCC1 15.9%
COc1cc(C2NC(=O)c3c(sc4c3CCN(C)C4)N2)cc(Br)c1OC(=O)c1ccc(C)cc1 (stereo unspecified) -6.1%
CCOC(=O)C1CCN(C(c2ccc(SC)cc2)c2c(O)cc(C)n(Cc3ccco3)c2=O)CC1 (stereo unspecified) 0%
COC(=O)c1c(NC(=O)CCCOc2ccc(C(C)(C)C)cc2)sc2c1C(C(=O)OC)CC2 (stereo unspecified) -8.11%
CCc1ccc(CNC(=O)C(C)n2ccc3cc(S(=O)(=O)N4CCCCCC4)ccc32)cc1 (stereo unspecified) -3.6%
COc1ccc(N2CCN(C(=O)CCn3c(=O)[nH]c4cc(OC)c(OC)cc4c3=O)CC2)cc1 -6.05%
COc1cccc(C(=O)NCCc2csc(-c3ccc(Cl)cc3)n2)c1 0.382%
Cc1cccc(NC(=O)CCS(=O)(=O)c2cccc3nsnc23)c1C -0.053%
COc1ccccc1N1CCN(c2ncnc3onc(-c4ccc(F)cc4)c23)CC1 0.625%
Cc1ccc(NC(=O)C2CCN(S(=O)(=O)c3ccc4[nH]c5c(c4c3)CCCCC5)CC2)cc1 -2.63%
CCOC(=O)CSC1=Nc2ccccc2C2=NC(CCC(=O)NCc3ccc(F)cc3)C(=O)N12 (stereo unspecified) 0.711%
O=C(NCc1cccc(F)c1)C1CCCN(C(=O)N2CCOc3ccccc32)C1 (stereo unspecified) 0.0257%
CC1CN(C(=O)N2CCC(C(=O)NCc3cccs3)CC2)c2cc(Cl)ccc2O1 (stereo unspecified) 10.3%
Cc1ccc(C)c(NC(=O)C2CCCN(c3nc4ccccc4s3)C2)c1 (stereo unspecified) -2%
CCc1ccccc1NC(=O)C1CCN(S(=O)(=O)c2ccccc2)CC1 -17.8%
COc1ccc(CNC(=O)C(C)Sc2nc(-c3ccccc3)cc(C(F)(F)F)n2)cc1 (stereo unspecified) 4.88%
